# Source: PubChem BioAssay AID1347417 (National Center for Advancing Translational Sciences (NCATS), 2020)
# Hit rate of the full screen: of about 120,000 compounds, about 5,300 (4.4%) were called active. Inconclusive results, whose numbers are uncertain, are shown with a selection of clear calls. Calls follow the shape of the dose curve; as a rule, active = well fitted inhibition curve with a large enough effect; inconclusive = small, poorly fitted or top-dose-only effect; inactive = no such curve, though single readings can be large or run the other way. Potencies of inconclusive entries are doubtful fits and often do not repeat.
# Assay: qHTS Primary assay for Inhibitors of Plasmodium falciparum Dd2 growth in vitro; also: nearly all actives have a fitted effect of over 65% in size;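 as to activity, negative = inhibition: plate controls were DMSO vehicle for no effect and reference drug for full effect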
# Conditions: P. falciparum Dd2 growth, SYBR Green, 72 h; activity, negative = inhibition: at 28.9 µM (top of the series) unless noted; series mostly up to 28.9 µM
# Outline: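 Readout: SYBR Green fluorescence, 485 nm excitation, 535 nm emission, after ~16 h lysis at 37C. Before that, Dd2-infected red cells (2.5% hematocrit) grew 72 h with compound, 29 uM top final concentration.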
# Potency is read from the fitted curve at half-maximal effect; tags tell the direction and shape of the fitted curve.
Structure (SMILES),Potency,"activity, negative = inhibition",outcome
O=C(c1cn(CCOc2ccc(Cl)cc2)c2ccccc12)C1CCCCC1,"inconclusive: 17.8 µM [inhibitor, single point]",–,–
COc1cccc(CN2C[C@@H](CO)[C@H](c3ccccn3)C2)c1,"inconclusive: 12.6 µM [inhibitor, partial curve, poor fit]",–,–
CNC(=O)C1CCC(Cn2c(=O)c3sccc3n(CC(=O)Nc3cc(F)ccc3F)c2=O)CC1 (stereo not given),"inconclusive: 17.8 µM [inhibitor, single point]",–,–
COCCc1noc(-c2ccccc2OC2CN(S(=O)(=O)C(C)C)C2)n1,active: 8.91 µM,–,–
O=C(NCc1cccnc1)C1CCN(C2CCN(Cc3ccc4c(c3)CCO4)CC2)CC1,–,inactive: -11.6%,–
COc1ccc(C(=O)N2CCN(C(=O)c3nnn4c3COC(c3ccc(Cl)cc3)C4)CC2)cc1F (stereo not given),"inconclusive: 10 µM [inhibitor, single point]",–,–
CCOC(=O)c1cccc(NC(=O)N2CCC(CN3CCCCCC3)CC2)c1,"inconclusive: 12.6 µM [inhibitor, single point]",–,–
COc1ccc(C(=O)N2CCn3c(nn(-c4ccc([N+](=O)[O-])cc4)c3=O)C2)cc1,–,inactive: -4.2%,–
COCCNc1cc(-c2ccc(Cl)cc2)nc2c(C)noc12,"inconclusive: 0.501 µM [inhibitor, full curve, poor fit]",–,–
N#Cc1ccccc1S(=O)(=O)N[C@H]1CO[C@H]2[C@@H]1OC[C@H]2OC(=O)Nc1ccc(Oc2ccccc2)cc1,–,–,inactive
CCOc1ccccc1N1CCN(C(=O)[C@H]2CCC[C@H]2NC(=O)c2cnc(C)cn2)CC1,–,inactive: -8.97%,–
Cc1cnc(CCNC(=O)c2n[nH]c(=O)c3ccccc23)n1C1CC1,–,–,inactive
Cc1cc(C)cc(Nc2cc(C(=O)NCc3ccccc3)c3ccccc3n2)c1,"inconclusive: 0.158 µM [inhibitor, partial curve, poor fit]",–,–
CCC(C)NC(=O)c1ccc2c(c1)CC(=O)N2Cc1ccccc1 (stereo not given),"inconclusive: 2 µM [inhibitor, partial curve, poor fit]",–,–
O=C(CN1C(=O)C2(SCC(=O)N2c2ccc(F)cc2)c2ccccc21)NCCc1ccccc1 (stereo not given),"inconclusive: 11.2 µM [inhibitor, single point]",–,–
Nc1ncc(-c2ccc(-c3cc(NC4CCCC4)nc4[nH]ccc34)cc2)[nH]1,active: 8.91 µM,–,–
CN(CC(=O)N1CCCC(CCc2ccc(F)cc2)C1)C1CCNCC1 (stereo not given),"inconclusive: 11.2 µM [inhibitor, single point]",–,–
O=C1NC(=NC2CCCC2)C2(CCN(Cc3cccnc3)CC2)N1c1cc(F)cc(F)c1,–,inactive: -68%,–
O=C(NCCCN1CCOCC1)c1ccc2c(c1)N(S(=O)(=O)c1ccccc1F)CC2,"inconclusive: 11.2 µM [inhibitor, single point]",–,–
CN(C)c1ccc(CN2CCNc3cc(Nc4cccnc4)ncc3C2)cc1,"inconclusive: 3.98 µM [inhibitor, partial curve, poor fit]",–,–
CCOc1ccc(NC(=O)N(Cc2ccc(CC)cc2)Cc2cn[nH]c2-c2ccc(OC)cc2)cc1,"inconclusive: 10 µM [inhibitor, single point]",–,–
N#Cc1cc(-n2ccnc2-c2cc3n(n2)CCCNC3)ccc1N1CCCC1,"inconclusive: 1.12 µM [inhibitor, partial curve, poor fit]",–,–
O=C(Cc1cccnc1)N1CCC(N2C(=O)C(OCC3CC3)C23CCCCC3)CC1 (stereo not given),–,inactive: -28.1%,–
COc1cccc(Oc2nc3c(c(=O)n(Cc4ccccc4Cl)c(=O)n3C)n2C)c1,"inconclusive: 3.98 µM [inhibitor, single point]",–,–

Structure (SMILES),Potency,"activity, negative = inhibition",outcome
O=c1[nH]c2ccc(NCc3ccc(-c4ccccc4F)o3)cc2[nH]1,"inconclusive: 17.8 µM [inhibitor, single point]",–,–
Cn1c(CNC(=O)C2(Cc3ccccc3)CCCCC(=O)N2)nc2ccccc21 (stereo not given),"inconclusive: 20 µM [inhibitor, single point]",–,–
Cc1ccccc1-c1noc(CNCc2nc3ccc(Cl)cc3[nH]2)n1,–,inactive: -4.9%,–
Cc1nc2c(c(-c3ccc(O)cc3)n1)CN([S+](=O)([O-])c1c(C)noc1C)CCC2,–,–,inactive
CN1C[C@@H](NC(=O)Nc2cccc(C#N)c2)C[C@H]1c1nc(-c2ccc(Cl)cc2)no1,"inconclusive: 22.4 µM [inhibitor, single point]",–,–
Fc1cccc(NC2CCCN(Cc3cccn3-c3nccs3)C2)c1 (stereo not given),"inconclusive: 3.55 µM [inhibitor, partial curve]",–,–
COCCn1c(C)cnc1CC1CCN(C(=O)CCC2CCCC2)CC1,–,–,inactive
COCC(=O)N(C1CCOCC1)C1CCN(C(=O)Cc2cccc(OC)c2)CC1,–,inactive: 13.7%,–
O=C1CC(c2ccccc2)N(C(=O)NC2CCCCC2)CCCCCN1 (stereo not given),–,inactive: -18.8%,–
COCCN1CCC(C(=O)Nc2ccc(Oc3ccccc3F)cc2)CC1,active: 12.6 µM,–,–
COc1ccc(-n2cc(CN3CCC(O)CC3)c(-c3cccc(F)c3)n2)cc1,active: 12.6 µM,–,–
COc1ccc(C(=O)N2CC(=O)Nc3ccc(C)cc3C2c2ccc(F)cc2)c(OC)c1 (stereo not given),"inconclusive: 10 µM [inhibitor, single point]",–,–
O=C(NC[C@H]1OC[C@@H](NCc2ccc(F)cc2)[C@@H]1O)c1ccncc1,–,inactive: 17.1% [at 44.1 µM],–
COc1ccccc1/C=C/CN1CCNC(=O)C1CC(=O)N(C)Cc1ccc(C)cc1 (stereo not given),–,inactive: -3.03%,–
COCc1nc2nc(-c3ccccc3)c(-c3cccc(CO)c3)cc2n1C,"inconclusive: 2.24 µM [inhibitor, partial curve, poor fit]",–,–
CC(C)Cc1cc(C[C@@H]2C[C@H](NC(=O)C3CCCC3)C2(C)C)no1,–,–,inactive [at 44.1 µM]
CC(C)N1C(=O)C2(CCCC2)C1C(=O)NC1CCCC1 (stereo not given),–,inactive: 19%,–
CC(NC(=O)C1CCCO1)C(=O)N1CCN(c2ccccn2)CC1 (stereo not given),–,inactive: -5.81%,–
CCc1noc(-c2ccn3c(CNC(=O)c4cc(F)ccc4Cl)nnc3c2)n1,"inconclusive: 8.91 µM [inhibitor, partial curve, poor fit]",–,–
O=C(Nc1nccs1)c1ccc2c(c1)OCCN(c1ccccc1)C2,active: 10 µM,–,–
O=C(Cc1ccc(F)cc1)N1CCC2(CC1)COc1ccccc1[S+](=O)([O-])N2,–,inactive: -21%,–
O=C(NC1CCCCC1)N[C@H]1[C@H](O)[C@@H](Sc2ccccc2)[C@@H]2OC[C@H]1O2,–,inactive: -23.4% [at 44.1 µM],–
COc1cc(F)ccc1-c1ccnc2nc(CCc3ccccc3)nn12,–,–,inactive
COc1cccc(N2C(=O)NC(=NC3CCCCC3)C23CCN(Cc2ccsc2)C3)c1 (stereo not given),"inconclusive: 2.24 µM [inhibitor, full curve]",–,–

Structure (SMILES),Potency,"activity, negative = inhibition",outcome
COc1ccc(Cl)cc1C(=O)NC1CCN(C(=O)c2cc3c(=O)[nH]c(C)cn3n2)CC1,active: 5.01 µM,–,–
CCN1CCN(C(=O)c2ccc(-c3nnc4ccc(NC(=O)C5CCC5)cn34)cc2)CC1,"inconclusive: 3.55 µM [inhibitor, partial curve, poor fit]",–,–
CN(Cc1cccc(C(F)(F)F)c1)C(=O)Cc1ccc(F)cc1,–,–,inactive [at 44.1 µM]
COc1cc(OC)c(OC)cc1CN1CCc2nc(N3CCN(c4ccccc4F)CC3)ncc2C1,"inconclusive: 11.2 µM [inhibitor, partial curve]",–,–
O=C1CC(c2noc(C3CCC3)n2)CN1C1CCCCC1 (stereo not given),"inconclusive: 0.708 µM [inhibitor, full curve, poor fit]",–,–
Cn1nc(-c2cccs2)cc1[C@H]1CN2CC[C@H]1C[C@@H]2CN,–,–,inactive [at 44.1 µM]
NC(=O)Cc1c[nH]c2ncc(-c3ccccc3C(F)(F)F)cc12,–,inactive: 9.45% [at 44.1 µM],–
O=C(NC1CCCC1)N1CCCCCC1CN1CCOCC1 (stereo not given),"inconclusive: 10 µM [inhibitor, single point]",–,–
CN(C)c1ccc(C2CC(c3c(O)n(C4CCCCC4)c(=O)[nH]c3=O)=Nc3ccccc3S2)cc1 (stereo not given),"inconclusive: 11.2 µM [inhibitor, single point]",–,–
Cn1c(=O)n(C)c2cc(CNCCc3ccccc3F)ccc21,"inconclusive: 10 µM [inhibitor, partial curve, poor fit]",–,–
O=C(NCc1cccc(F)c1)C1CCc2sc(C(=O)N3CCCCC3)cc2C1 (stereo not given),"inconclusive: 10 µM [inhibitor, partial curve]",–,–
O=C(CCc1cc(Cl)no1)N1CCCC(c2nc(C3CCOCC3)no2)C1 (stereo not given),–,–,inactive
COc1ccc(NC(=O)C2=C(C)Nc3c(C(=O)Nc4ccc(C)cc4)cnn3C2c2cc(OC)ccc2OC)cc1 (stereo not given),"inconclusive: 12.6 µM [inhibitor, single point]",–,–
COc1cccc(CNC(=O)C2CCN(C(=O)c3ncn4c3COC(c3ccc(F)cc3)C4)CC2)c1 (stereo not given),–,–,inactive
COc1cccc(NC(=O)Cn2c(=O)n(Cc3ccccc3)c(=O)c3c2c2cc(C)ccc2n3C)c1,"inconclusive: 1 µM [inhibitor, single point]",–,–
CC(C)CN(Cc1cccnc1)C1CN(C(=O)NCc2ccc(F)cc2)C1,"inconclusive: 10 µM [inhibitor, single point]",–,–
CCN(CC)Cc1cc(-c2nc(C3CCOC3)no2)c(-c2ccccc2)o1 (stereo not given),"inconclusive: 8.91 µM [inhibitor, single point]",–,–
COc1ccc(Cl)cc1C(=O)NCc1nnc2ccc(-c3ccccc3)nn12,–,inactive: -15.4%,–
COCC1(c2nc(C3CCOCC3)nn2-c2ccncc2C)CC1,–,inactive: 2.65%,–
O=S(=O)(c1cccc(C(F)(F)F)c1)N1CCC(Oc2ccc(-n3cnnn3)cc2)CC1,"inconclusive: 17.8 µM [inhibitor, single point]",–,–
COc1ccc(C(=O)N2C[C@@H](CO)[C@H](c3ccncc3)C2)c(C)c1,"inconclusive: 17.8 µM [inhibitor, single point]",–,–
CC1=C[C@@H](CN2CCC(O)CC2)[C@H](C(C)C)C[C@H]1Cc1nnc(-c2ccc([N+](=O)[O-])cc2)o1,"inconclusive: 2.82 µM [inhibitor, partial curve, poor fit]",–,–
